# Single values of this set are uncertain.
# Assay: amyloid nucleation score relative to library mode (yeast Sup35 reporter selection) (log enrichment difference); higher = more amyloid nucleation; sequences are the first 22 residues of the Bri2 peptide extended by up to 12 random residues
# Conditions: random library (experiment): 1;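 active = nucleation score significantly above 0 at FDR 0.05; inactive = not significantly above 0 or absent from output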
# 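Note: [psi-pin-] Saccharomyces cerevisiae expressing SupN fusions, induced by 100 µM Cu2SO4, selected 7 d at 30 °C without adenine and uracil, scored by deep sequencing of output versus input.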
row,Sequence,amyloid nucleation score
1,EASNCFAIRHFENKFAVETLICCGGCTRDWHGPG,8.38
2,EASNCFAIRHFENKFAVETLICVELRATVQPWVS,inactive
3,EASNCFAIRHFENKFAVETLICVFMKG,6.5
4,EASNCFAIRHFENKFAVETLICYLWLPSSASMER,4.83
5,EASNCFAIRHFENKFAVETLICTLCM,7.81
6,EASNCFAIRHFENKFAVETLICRSWWSWGDRRLA,inactive
7,EASNCFAIRHFENKFAVETLICGGDENCRRWAAW,inactive
8,EASNCFAIRHFENKFAVETLICCTVFSVCHDAQH,8.04
9,EASNCFAIRHFENKFAVETLICKVRSD,inactive
10,EASNCFAIRHFENKFAVETLICLDAMIVEAKRSE,inactive
11,EASNCFAIRHFENKFAVETLICYLRFLWHASLRC,inactive
12,EASNCFAIRHFENKFAVETLICGGRKRTM,3.42
13,EASNCFAIRHFENKFAVETLICGHRSL,inactive
14,EASNCFAIRHFENKFAVETLICGCRSSRSLPIGA,inactive
15,EASNCFAIRHFENKFAVETLICRCASSLNRGISR,inactive
16,EASNCFAIRHFENKFAVETLICATCFHVGCVTRT,6.96
17,EASNCFAIRHFENKFAVETLICVADGC,-0.469
18,EASNCFAIRHFENKFAVETLICDPASS,0.503
19,EASNCFAIRHFENKFAVETLICWKAPCIRHHLEG,inactive
20,EASNCFAIRHFENKFAVETLICLSFCTAWASYQW,6.3
21,EASNCFAIRHFENKFAVETLICCYVYTPSADMQ,8.52
22,EASNCFAIRHFENKFAVETLICQSRVLYRCCYVG,inactive
23,EASNCFAIRHFENKFAVETLICYSFCLAMFARPR,inactive

row,Sequence,amyloid nucleation score
1,EASNCFAIRHFENKFAVETLICFHW,7.95
2,EASNCFAIRHFENKFAVETLICHY,inactive
3,EASNCFAIRHFENKFAVETLICWRREVGT,-0.137
4,EASNCFAIRHFENKFAVETLICMYSRYRIHVIRC,inactive
5,EASNCFAIRHFENKFAVETLICWEVMWARLAWPS,0.256
6,EASNCFAIRHFENKFAVETLICPCVFQWRVIR,5.77
7,EASNCFAIRHFENKFAVETLICDSVKTIGGGMKE,inactive
8,EASNCFAIRHFENKFAVETLICGRTMLH,inactive
9,EASNCFAIRHFENKFAVETLICEVSCGRFCYRDR,inactive
10,EASNCFAIRHFENKFAVETLICCRKMPCKPCCIA,inactive
11,EASNCFAIRHFENKFAVETLICMRCQSQFVACLA,4.29
12,EASNCFAIRHFENKFAVETLICMLVSSHSARRWG,inactive
13,EASNCFAIRHFENKFAVETLICVGYYT,inactive
14,EASNCFAIRHFENKFAVETLICASFANIKPGLLG,inactive
15,EASNCFAIRHFENKFAVETLICDIVGESGAMRVW,inactive
16,EASNCFAIRHFENKFAVETLICYLSHDGRWGERR,4.82
17,EASNCFAIRHFENKFAVETLICTQPHESMYRGTT,inactive
18,EASNCFAIRHFENKFAVETLICLVNRYLTIVCYC,inactive
19,EASNCFAIRHFENKFAVETLICTESLANSRLTFG,-0.746
20,EASNCFAIRHFENKFAVETLICVVSF,inactive
21,EASNCFAIRHFENKFAVETLICLSVGCSWLSEKM,4.87
22,EASNCFAIRHFENKFAVETLICRATMRKARHGLV,inactive
23,EASNCFAIRHFENKFAVETLICDMPRARH,2.2

# Same assay, conditions: random library (experiment): 2
row,Sequence,amyloid nucleation score
1,EASNCFAIRHFENKFAVETLICMENVSIY,inactive
2,EASNCFAIRHFENKFAVETLICYALHSMQINMLG,inactive
3,EASNCFAIRHFENKFAVETLICVESRWKNRLMVH,inactive
4,EASNCFAIRHFENKFAVETLICLCLVLSCRVLNS,inactive
5,EASNCFAIRHFENKFAVETLICMIKRLCSMWQKV,inactive
6,EASNCFAIRHFENKFAVETLICLSCGLLTGRIMG,7.85
7,EASNCFAIRHFENKFAVETLICKRQYGSNCYSMA,-0.122
8,EASNCFAIRHFENKFAVETLICYLIRNHVKGMWL,0.635
9,EASNCFAIRHFENKFAVETLICTLV,5.9
10,EASNCFAIRHFENKFAVETLICQL,inactive
11,EASNCFAIRHFENKFAVETLICLCTVCVAYKFSA,inactive
12,EASNCFAIRHFENKFAVETLICFSCIDKPSCSKC,7.17
13,EASNCFAIRHFENKFAVETLICIAAFGNLVVQWW,inactive
14,EASNCFAIRHFENKFAVETLICASSGRQFWGSAG,2.9
15,EASNCFAIRHFENKFAVETLICELLNYSVCQEGA,1.37
16,EASNCFAIRHFENKFAVETLICYNFTEVYTSSPP,5.46
17,EASNCFAIRHFENKFAVETLICAVMSSFIFNFWL,inactive
18,EASNCFAIRHFENKFAVETLICGICCYFSMFVKT,inactive
19,EASNCFAIRHFENKFAVETLICVSECVQRLGTVS,inactive
20,EASNCFAIRHFENKFAVETLICFIMNRSNLVKLL,inactive
21,EASNCFAIRHFENKFAVETLICGVTKHIALVTCT,-0.00995
22,EASNCFAIRHFENKFAVETLICGST,-0.104
23,EASNCFAIRHFENKFAVETLICVSYSIVECTPVR,0.635
24,EASNCFAIRHFENKFAVETLICLSWNEYWTSVIG,1.26

row,Sequence,amyloid nucleation score
1,EASNCFAIRHFENKFAVETLICVRILGFMPVFAK,inactive
2,EASNCFAIRHFENKFAVETLICNNR,-0.131
3,EASNCFAIRHFENKFAVETLICFVIYFGESQSMG,3.33
4,EASNCFAIRHFENKFAVETLICGDDCLRGADVSS,0.408
5,EASNCFAIRHFENKFAVETLICLLFNRMVYRMWL,inactive
6,EASNCFAIRHFENKFAVETLICIFISVILTWSLV,inactive
7,EASNCFAIRHFENKFAVETLICTRVSSIWFYH,inactive
8,EASNCFAIRHFENKFAVETLICVYEAYRTYNHGW,4.09
9,EASNCFAIRHFENKFAVETLICGKAYVHGYMKKR,inactive
10,EASNCFAIRHFENKFAVETLICHSELMITESIEW,2.11
11,EASNCFAIRHFENKFAVETLICARFIRGRVPFLW,inactive
12,EASNCFAIRHFENKFAVETLICATCFIGR,8.25
13,EASNCFAIRHFENKFAVETLICTVYSIGCSCSMH,6.3
14,EASNCFAIRHFENKFAVETLICEKEGDKRHNVV,inactive
15,EASNCFAIRHFENKFAVETLICVRDYHPIFTHYH,7.08
16,EASNCFAIRHFENKFAVETLICGARNF,inactive
17,EASNCFAIRHFENKFAVETLICDGHNIVSVRWVW,inactive
18,EASNCFAIRHFENKFAVETLICGIFDLCC,7.69
19,EASNCFAIRHFENKFAVETLICLSWFCFIVSIAS,3.39
20,EASNCFAIRHFENKFAVETLICAWNGISC,7.75
21,EASNCFAIRHFENKFAVETLICDVLF,-0.405
22,EASNCFAIRHFENKFAVETLICLGVYLNEQDIVV,4.71
23,EASNCFAIRHFENKFAVETLICANFLFINWGLVR,2.61

# Same assay, conditions: random library (experiment): 3
row,Sequence,amyloid nucleation score
1,EASNCFAIRHFENKFAVETLICCLYCKYLKWCFL,inactive
2,EASNCFAIRHFENKFAVETLICTLR,inactive
3,EASNCFAIRHFENKFAVETLICTNLLTNGVVSYF,8.56
4,EASNCFAIRHFENKFAVETLICRKGYGQPLRAGG,inactive
5,EASNCFAIRHFENKFAVETLICCSAGTERRWAWS,8.35
6,EASNCFAIRHFENKFAVETLICMCRYWSTGYRG,inactive
7,EASNCFAIRHFENKFAVETLICDSGMRLHRVPMK,4.73
8,EASNCFAIRHFENKFAVETLICAKCI,-0.119
9,EASNCFAIRHFENKFAVETLICVIIALEIQVNRE,inactive
10,EASNCFAIRHFENKFAVETLICFRPCRGGHDCLD,3.35
11,EASNCFAIRHFENKFAVETLICLSLPI,5.81
12,EASNCFAIRHFENKFAVETLICHWARLQAGTGLK,inactive
13,EASNCFAIRHFENKFAVETLICRAMFKYVFLIWC,inactive
14,EASNCFAIRHFENKFAVETLICHCPCKSRRVNAG,7.99
15,EASNCFAIRHFENKFAVETLICIRRYG,inactive
16,EASNCFAIRHFENKFAVETLICIKDRGQCMVTIR,5.71
17,EASNCFAIRHFENKFAVETLICAESWCPLTRVKE,inactive
18,EASNCFAIRHFENKFAVETLICTLIDGGSVEGWS,inactive
19,EASNCFAIRHFENKFAVETLICWKVWQNDHRYIG,inactive
20,EASNCFAIRHFENKFAVETLICGLDFSV,4.31
21,EASNCFAIRHFENKFAVETLICLRMSRRWYTDGR,1.62
22,EASNCFAIRHFENKFAVETLICRSGAPEFTYRAA,inactive
23,EASNCFAIRHFENKFAVETLICGSGAERTGMKAV,-0.0526
24,EASNCFAIRHFENKFAVETLICVSDYVLHKLVVR,inactive
25,EASNCFAIRHFENKFAVETLICVKGRVRKLCFLS,inactive
26,EASNCFAIRHFENKFAVETLICGKGRARSVVMRR,inactive
27,EASNCFAIRHFENKFAVETLICHTI,1.44
28,EASNCFAIRHFENKFAVETLICRDGRSEQSIHVL,inactive
